Data reported in a compilation of properties of binary mixtures (doi:10.1021/je5008857).
The densities may have been worked out from excess volumes.

Assay: xn = mol fraction of the nth substance listed
Details: 101 kPa

CC(=O)[O-].CC[n+]1ccn(C)c1 + CCS(=O)(=O)[O-].[NH4+]
x2 = 0
Details | mass density [kg/m3]
298.15 K | 1098.3
308.15 K | 1092.4
313.15 K | 1089.4
323.15 K | 1083.4

CC(=O)[O-].[Na+] + CC(=O)[O-].CC[n+]1ccn(C)c1
mass density [kg/m3]
Details | 298.15 K | 303.15 K | 308.15 K | 313.15 K | 318.15 K | 323.15 K
x1 = 0.0501 | 1104.5 | 1101.4 | 1098.3 | 1095.5 | 1092.5 | 1089.4
x1 = 0.1001 | 1111.2 | – | 1105 | 1102.1 | 1099.1 | 1096.1
x1 = 0.1605 | 1119.6 | 1116.4 | 1113.3 | 1110.2 | 1107.2 | 1104.1

CC(=O)[O-].CC[n+]1ccn(C)c1 + CC(=O)[O-].[Na+]
x2 = 0
Details | mass density [kg/m3]
298.15 K | 1098.3
303.15 K | 1095.2
308.15 K | 1092.4
313.15 K | 1089.4
318.15 K | 1086.4
323.15 K | 1083.4

N#C[S-].[Na+] + CC(=O)[O-].CC[n+]1ccn(C)c1
x1 = 0.0502
Details | mass density [kg/m3]
298.15 K | 1105.7
303.15 K | 1102.6
308.15 K | 1099.5
313.15 K | 1096.5
318.15 K | 1093.5
323.15 K | 1090.4

CC(=O)[O-].CC[n+]1ccn(C)c1 + [Cl-].[NH4+]
x2 = 0
Details | mass density [kg/m3]
298.15 K | 1098.3
303.15 K | 1095.2
313.15 K | 1089.4
323.15 K | 1083.4

CC(=O)[O-].CC[n+]1ccn(C)c1 + N#C[S-].[Na+]
x2 = 0
Details | mass density [kg/m3]
298.15 K | 1098.3
308.15 K | 1092.4
318.15 K | 1086.4
323.15 K | 1083.4

CC(=O)[O-].CC[n+]1ccn(C)c1 + CC(=O)[O-].[NH4+]
x2 = 0
Details | mass density [kg/m3]
298.15 K | 1098.3
303.15 K | 1095.2
308.15 K | 1092.4
313.15 K | 1089.4
318.15 K | 1086.4

CC(=O)[O-].[NH4+] + CC(=O)[O-].CC[n+]1ccn(C)c1
mass density [kg/m3]
Details | 298.15 K | 303.15 K | 308.15 K | 313.15 K | 318.15 K | 323.15 K
x1 = 0.0503 | 1098.3 | 1095.2 | 1092.1 | 1089.1 | 1086 | 1082.9
x1 = 0.0999 | 1099.1 | 1096 | 1092.9 | – | 1086.7 | 1083.5
x1 = 0.1703 | 1100.1 | 1097 | 1093.9 | – | 1087.6 | 1084.5
x1 = 0.2498 | 1100.9 | 1097.7 | 1094.6 | 1091.5 | – | 1085.2
x1 = 0.328 | 1101.5 | 1098.3 | – | – | – | 1085.7
x1 = 0.4491 | – | 1098.9 | – | 1092.4 | 1089.2 | 1086.2

[Cl-].[NH4+] + CC(=O)[O-].CC[n+]1ccn(C)c1
mass density [kg/m3]
Details | 298.15 K | 303.15 K | 308.15 K | 313.15 K | 318.15 K | 323.15 K
x1 = 0.0505 | – | – | 1095.1 | 1092 | – | –
x1 = 0.0999 | 1104 | 1100.8 | 1097.8 | – | 1091.7 | 1088.7
x1 = 0.1702 | 1108.3 | 1105.2 | 1102 | – | 1095.8 | 1092.7
x1 = 0.25 | 1113.4 | 1110.2 | 1107.1 | 1104 | 1100.8 | 1097.7
x1 = 0.3297 | 1118.4 | 1115.3 | 1112.2 | 1109 | 1105.9 | 1102.8

CCS(=O)(=O)[O-].[NH4+] + CC(=O)[O-].CC[n+]1ccn(C)c1
mass density [kg/m3]
Details | 298.15 K | 303.15 K | 308.15 K | 313.15 K | 318.15 K | 323.15 K
x1 = 0.05 | 1105 | 1101.8 | 1098.7 | 1095.6 | – | 1089.4
x1 = 0.0999 | 1113.7 | 1110.5 | 1107.3 | 1104.2 | 1101 | –
x1 = 0.1701 | 1124.1 | 1120.8 | 1117.6 | – | 1111.2 | –
